Article PMC12222028
No constants are given. Whether binding was seen depends on the method and setting. For some assays here: Binding seen in cells or lysates may run through a third protein. Some binding calls cover weakened binding; strength is not graded here. For some assays here: Where a sequence is shown, tags or fusion partners need not be part of it.

The chains behind the UniProt entries cited, without tags or fusion partners. Residues count along the entry.
UniProt Q9P0T7, residues 21-183: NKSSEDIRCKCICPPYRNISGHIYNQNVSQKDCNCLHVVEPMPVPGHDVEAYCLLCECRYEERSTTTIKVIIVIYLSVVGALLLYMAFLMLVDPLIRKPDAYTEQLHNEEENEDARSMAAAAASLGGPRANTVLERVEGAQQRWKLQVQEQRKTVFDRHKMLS

T1: ATP11B (human (endogenous in HEK293)) (UniProt Q9Y2G3)
T1 sequence: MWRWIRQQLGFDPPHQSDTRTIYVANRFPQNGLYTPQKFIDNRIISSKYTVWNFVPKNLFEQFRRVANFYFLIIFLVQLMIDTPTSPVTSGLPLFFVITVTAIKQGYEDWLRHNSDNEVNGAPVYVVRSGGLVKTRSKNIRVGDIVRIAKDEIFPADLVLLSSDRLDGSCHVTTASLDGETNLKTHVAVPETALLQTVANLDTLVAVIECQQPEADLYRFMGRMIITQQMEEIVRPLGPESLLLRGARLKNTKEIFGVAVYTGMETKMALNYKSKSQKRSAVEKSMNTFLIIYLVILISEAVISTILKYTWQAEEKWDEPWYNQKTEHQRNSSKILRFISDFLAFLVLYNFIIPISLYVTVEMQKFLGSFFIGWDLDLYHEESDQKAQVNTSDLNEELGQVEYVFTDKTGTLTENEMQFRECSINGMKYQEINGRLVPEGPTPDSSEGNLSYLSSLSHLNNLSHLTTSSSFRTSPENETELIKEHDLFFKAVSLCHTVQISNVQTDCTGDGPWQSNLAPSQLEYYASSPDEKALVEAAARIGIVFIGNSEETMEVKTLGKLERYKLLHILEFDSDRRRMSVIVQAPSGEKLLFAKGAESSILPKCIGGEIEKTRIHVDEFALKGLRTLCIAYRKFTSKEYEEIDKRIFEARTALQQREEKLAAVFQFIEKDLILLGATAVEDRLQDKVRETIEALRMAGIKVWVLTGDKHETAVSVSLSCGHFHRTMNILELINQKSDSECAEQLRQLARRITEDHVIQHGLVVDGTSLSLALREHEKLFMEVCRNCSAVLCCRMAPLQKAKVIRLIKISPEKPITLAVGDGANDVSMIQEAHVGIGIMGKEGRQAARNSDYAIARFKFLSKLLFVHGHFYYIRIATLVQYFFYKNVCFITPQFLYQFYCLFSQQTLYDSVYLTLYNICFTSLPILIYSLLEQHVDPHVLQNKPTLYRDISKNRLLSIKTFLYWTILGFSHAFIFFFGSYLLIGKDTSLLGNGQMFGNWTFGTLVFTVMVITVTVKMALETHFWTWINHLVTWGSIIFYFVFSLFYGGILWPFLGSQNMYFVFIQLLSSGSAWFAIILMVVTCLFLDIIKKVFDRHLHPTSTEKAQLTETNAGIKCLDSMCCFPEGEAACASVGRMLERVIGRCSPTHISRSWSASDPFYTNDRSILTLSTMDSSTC

T2: TMEM30A (human (endogenous in HEK293)) (UniProt Q9NV96)
T2 sequence: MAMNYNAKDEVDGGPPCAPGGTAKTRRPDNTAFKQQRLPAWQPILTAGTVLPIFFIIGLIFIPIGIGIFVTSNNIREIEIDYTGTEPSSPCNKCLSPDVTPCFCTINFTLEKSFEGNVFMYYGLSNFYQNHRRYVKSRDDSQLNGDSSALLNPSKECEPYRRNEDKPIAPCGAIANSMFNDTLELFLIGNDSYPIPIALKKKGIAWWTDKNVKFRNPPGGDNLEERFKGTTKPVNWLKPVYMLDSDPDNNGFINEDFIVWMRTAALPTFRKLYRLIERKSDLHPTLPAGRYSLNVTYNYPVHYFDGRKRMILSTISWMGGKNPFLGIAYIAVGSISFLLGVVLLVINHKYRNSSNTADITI

T3: HA-tagged TMEM9B (human) (UniProt Q9NQ34)
T3 sequence: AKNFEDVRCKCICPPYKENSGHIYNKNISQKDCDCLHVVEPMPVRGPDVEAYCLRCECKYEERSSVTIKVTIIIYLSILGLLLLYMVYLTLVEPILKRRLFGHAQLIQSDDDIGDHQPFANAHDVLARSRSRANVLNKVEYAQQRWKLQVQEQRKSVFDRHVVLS


Key:
[1] = biological target: T1, ATP11B (human (endogenous in HEK293)); assay: native gel or EMSA; BN-MS: 0.5% DDM extract of purified early endosomes (HEK293) on a 4-16% NativePAGE gel, 48 slices, DIA mass spectrometry; co-fractionation profiles
[2] = biological target: T2, TMEM30A (human (endogenous in HEK293)); assay: as above
[3] = biological target: T1, ATP11B (human (endogenous in HEK293)); assay: cross-linking; XL-MS: intact early endosomes (Endo-IP, HEK293 cells expressing Flag-EEA1, eluted with 3xFlag peptide, no detergent) cross-linked with 1 mM DSSO in KPBS at room temperature for 40 min; XlinkX, 5% FDR
HA-tagged TMEM9 (human) = HA-tagged TMEM9 (human) (UniProt Q9P0T7); assay: co-IP; HEK293 cells transfected with tagged proteins; 0.5% DDM, 25 mM HEPES pH 7.4, 150 mM NaCl; anti-HA or anti-Flag magnetic beads; immunoblot
HA-tagged TMEM9B (human) = biological target: T3, HA-tagged TMEM9B (human); assay: as above

| binding [1] | binding [2] | binding [3] | binding (HA-tagged TMEM9 (human)) | binding (HA-tagged TMEM9B (human)) | Binder |
| --- | --- | --- | --- | --- | --- |
| binds | binds | binds |  |  | TMEM230 (protein, UniProt Q96A57 1-120) MMPSRTNLATGIPSSKVKYSRLSSTDDGYIDLQFKKTPPKIPYKAIALATVLFLIGAFLIIIGSLLLSGYISKGGADRAVPVLIIGILVFLPGFYHLRIAYYASKGYRGYSYDDIPDFDD |
|  |  |  | binds | binds | Flag–CLCN5 (protein, UniProt P51795 1-816) MAMWQGAMDNRGFQQGSFSSFQNSSSDEDLMDIPATAMDFSMRDDVPPLDREVGEDKSYNGGGIGSSNRIMDFLEEPIPGVGTYDDFNTIDWVREKSRDRDRHREITNKSKESTWALIHSVSDAFSGWLLMLLIGLLSGSLAGLIDISAHWMTDLKEGICTGGFWFNHEHCCWNSEHVTFEERDKCPEWNSWSQLIISTDEGAFAYIVNYFMYVLWALLFAFLAVSLVKVFAPYACGSGIPEIKTILSGFIIRGYLGKWTLVIKTITLVLAVSSGLSLGKEGPLVHVACCCGNILCHCFNKYRKNEAKRREVLSAAAAAGVSVAFGAPIGGVLFSLEEVSYYFPLKTLWRSFFAALVAAFTLRSINPFGNSRLVLFYVEFHTPWHLFELVPFILLGIFGGLWGALFIRTNIAWCRKRKTTQLGKYPVIEVLVVTAITAILAFPNEYTRMSTSELISELFNDCGLLDSSKLCDYENRFNTSKGGELPDRPAGVGVYSAMWQLALTLILKIVITIFTFGMKIPSGLFIPSMAVGAIAGRLLGVGMEQLAYYHQEWTVFNSWCSQGADCITPGLYAMVGAAACLGGVTRMTVSLVVIMFELTGGLEYIVPLMAAAMTSKWVADALGREGIYDAHIRLNGYPFLEAKEEFAHKTLAMDVMKPRRNDPLLTVLTQDSMTVEDVETIISETTYSGFPVVVSRESQRLVGFVLRRDLIISIENARKKQDGVVSTSIIYFTEHSPPLPPYTPPTLKLRNILDLSPFTVTDLTPMEIVVDIFRKLGLRQCLVTHNGRLLGIITKKDVLKHIAQMANQDPDSILFN |
